Reference: PubChem BioAssay AID488969 (Vanderbilt High Throughput Screening Facility, 2010)
The full ranking holds about 110,000 compounds; the median of “z-score” is about -0.1, and the highest 2% start at about 2. The list shows a part of the results. Calls of active or inactive are those of the source.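 The calls were made as follows: active = z-score in the third read window above 3 or below -3; inactive = the rest.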

These compounds were tested against Metabotropic glutamate receptor 8 (Rattus norvegicus) (UniProt P70579) (assay: mGluR8 Gi/Go-coupled signaling modulation – cell-based, rat, thallium flux, HTS, primary screen (AID 488969)). Conditions: HEK293 rat mGluR8, GIRK (G protein-gated inwardly rectifying potassium channel) thallium flux, FluoZin2; at 10 µM; stronger effect = higher value; submaximal glutamate (EC20) added with thallium.
Sequence of UniProt P70579 (P70579 whole entry, looked up): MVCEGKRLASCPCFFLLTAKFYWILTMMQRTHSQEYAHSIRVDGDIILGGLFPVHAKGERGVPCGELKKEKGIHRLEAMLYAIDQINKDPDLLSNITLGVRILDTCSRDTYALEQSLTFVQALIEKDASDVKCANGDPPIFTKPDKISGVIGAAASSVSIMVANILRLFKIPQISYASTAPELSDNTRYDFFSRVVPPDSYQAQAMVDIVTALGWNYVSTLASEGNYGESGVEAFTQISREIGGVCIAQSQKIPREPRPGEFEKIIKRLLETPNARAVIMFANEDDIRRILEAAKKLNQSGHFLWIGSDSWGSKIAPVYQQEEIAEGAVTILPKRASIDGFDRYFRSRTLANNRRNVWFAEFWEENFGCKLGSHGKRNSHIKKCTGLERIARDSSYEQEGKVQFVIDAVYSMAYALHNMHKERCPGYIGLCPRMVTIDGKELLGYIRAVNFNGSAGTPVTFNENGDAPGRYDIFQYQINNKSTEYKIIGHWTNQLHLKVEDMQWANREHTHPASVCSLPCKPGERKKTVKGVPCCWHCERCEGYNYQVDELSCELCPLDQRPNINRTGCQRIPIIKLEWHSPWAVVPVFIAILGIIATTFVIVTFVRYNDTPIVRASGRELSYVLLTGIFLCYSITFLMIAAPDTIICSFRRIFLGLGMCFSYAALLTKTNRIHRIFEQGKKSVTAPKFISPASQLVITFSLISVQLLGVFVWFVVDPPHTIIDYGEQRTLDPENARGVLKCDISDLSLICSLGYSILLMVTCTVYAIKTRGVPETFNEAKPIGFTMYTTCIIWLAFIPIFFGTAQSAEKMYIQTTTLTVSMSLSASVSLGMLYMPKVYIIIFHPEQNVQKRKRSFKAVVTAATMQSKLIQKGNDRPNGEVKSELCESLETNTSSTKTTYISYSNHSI

| Structure (SMILES) | z-score |
| --- | --- |
| CSCCC(NC(=O)C1CCC(C)CC1)C(=O)NCCN1CCOCC1 (stereo not drawn) | -0.328 |
| CN(Cc1ccccc1)S(=O)(=O)c1ccc(S(=O)(=O)N2CCN(CCC#N)CC2)cc1 | -0.541 |
| CC(N)C12CC3CC(C1)CC(C(C)N)(C3)C2 (stereo not drawn) | 1.22 |
| Cc1cc(C)n(S(=O)(=O)c2ccc(Cl)c(Cl)c2Cl)n1 | -0.268 |
| CCCn1c(N)c(C(=O)CSc2nnc(C3CC3)n2Cc2ccccc2)c(=O)[nH]c1=O | -0.664 |
| CCOc1ccc(NC(=O)CSC2=NCCN2)cc1 | -0.121 |
| O=C(NCc1ccccc1)c1csc2c1CCCCC2 | 0.0771 |
| O=C(O)/C=C/C(=O)Nc1ccccc1-c1ccccc1 | -0.155 |
| CC1Cc2ccccc2N1C(=O)CSc1ncc(-c2ccc(F)cc2)n1C (stereo not drawn) | -1.1 |
| S=c1nc(-c2ccccc2Br)[nH][nH]1 | -0.253 |
| CCOC(=O)N1CCN(C(=O)CS(=O)(=O)c2cn(Cc3ccccc3C)c3ccccc23)CC1 | 0.384 |
| COc1ccc(NC(=S)NN2CCN(C)CC2)cc1OC | -0.115 |
| Cn1c(NC(=O)Cc2ccc(F)cc2)cc(=O)n(C)c1=O | 2.79 |
| c1ccc2c(c1)OCCOCCOCCOCCOc1ccccc1OCCOCCOCCO2 | 0.257 |
| Cc1ccc(Nc2nc3c(s2)CCC3)c(C)c1 | 0.322 |
| CN(C)c1nc(N(C)C)nc(N(C#N)CCOc2ccccc2)n1 | 1.26 |
| COc1ccc2cc(C3(C)NC(=O)N(CC(=O)NCc4ccco4)C3=O)ccc2c1 (stereo not drawn) | -0.0569 |
| Cc1ccc(C)c(NC(=O)CSc2nnc([C@@H](N)Cc3ccccc3)o2)c1 | -0.0095 |
| CC(C)(C)NC(=O)CN(C(=O)Cn1nnc(-c2ccc(Cl)cc2)n1)C1CCN(Cc2ccccc2)CC1 | -0.128 |
| O=C(c1cc(-c2ccncc2)nc2ccccc12)N1CCN(S(=O)(=O)/C=C/c2ccccc2)CC1 | 0.034 |
| COc1ccccc1CNC(=O)c1cnn2c(C(F)F)cc(C)nc12 | -1.25 |
| O=C(CN1CCN(c2ccc(F)cc2)CC1)Nc1ccc(-n2cnnn2)cc1 | 0.597 |
| COc1ccc(NC(=O)N(CCc2ccccc2)Cc2cc3c(C)cc(C)cc3[nH]c2=O)cc1 | 0.0539 |
| Cc1ccc(C=C2C(=O)c3ccccc3C2=O)s1 | -0.109 |
| Cc1ccc(C2CC(=O)NC3=C2C(=O)CCC3)cc1Br (stereo not drawn) | -1.54 |

| Structure (SMILES) | z-score |
| --- | --- |
| Nc1nnc(CCN2C(=O)CSC2=O)s1 | 0.0801 |
| Nc1ccc2nc(CCc3ccccc3)[nH]c2c1 | -0.112 |
| CC(C)C(=O)NC(NC(=S)Nc1cccc2cccnc12)C(Cl)(Cl)Cl (stereo not drawn) | -0.0128 |
| CCOC(=O)C1C(=O)NC(SCC(=O)OC)=C(C#N)C1c1ccccc1OCC (stereo not drawn) | -1.54 |
| Cc1ccc(C)n1/N=C1/NC(=O)CS1 | -0.196 |
| CC1CN(C(=O)CSc2ncnc3sccc23)CC(C)O1 (stereo not drawn) | 0.339 |
| O=C1C(=C(O)c2ccccc2)C(=O)c2ccccc21 | -0.164 |
| COc1cccc(/C=N/NC(=O)c2cc3cc([N+](=O)[O-])ccc3s2)c1O | 0.0962 |
| C#CC[N+](C)(C)CCCCCCCC | 0.0327 |
| O=C1C(c2ccnc3ccccc23)=C(O)c2ccccc21 | 0.546 |
| O=C(N/N=C/C(Cl)=C\c1ccccc1)c1cnccn1 | -0.148 |
| Cc1ccc2[nH]c(SCC(=O)N3CCOCC3)nc2c1C | -0.206 |
| CCc1ccc(N(CC(=O)NC)S(C)(=O)=O)cc1 | 0.0579 |
| CC(C)NS(=O)(=O)c1ccc(NC(=O)NC2CCCCC2)cc1 | 0.0764 |
| COC(=O)C1=C(C)N=C2SC(C#N)=C(N)N2C1c1ccc(OCc2ccccc2)cc1 (stereo not drawn) | 0.149 |
| CC1=CCC2COC(c3ccc[n+](Cc4ccccc4)c3)C1C2 (stereo not drawn) | -0.297 |
| COc1cccc(OCC(=O)NN=C2c3ccccc3-c3ccccc32)c1 | 0.226 |
| CC(=O)c1ccc(NC(=O)Nc2ccc3c(c2)N(C)C(=O)CS3)cc1 | -0.385 |
| CCS(=O)(=O)N1CCCC(C(=O)NCc2ccc(C)cc2)C1 (stereo not drawn) | 0.346 |
| Cc1ccc(S(=O)(=O)Cn2nnnc2C(CC(C)C)N2CCN(c3ccccc3)CC2)cc1 (stereo not drawn) | -0.0547 |
| Cc1c(C(=O)NCc2cccnc2)sc2ncn(CC(=O)N3CCCCC3C)c(=O)c12 (stereo not drawn) | 0.148 |
| COC(=O)C1(O)CC(CC(C)C)=NN1C(=O)c1ccccc1 (stereo not drawn) | 1.39 |
| CCOC(=O)c1cnn(-c2ncnc3c2cnn3Cc2ccccc2)c1N | -0.248 |
| COc1ccc(C(CC(=O)Nc2ccc(C)cc2)NC(=O)C(F)(F)F)cc1 (stereo not drawn) | -0.177 |
| CCOc1ccc(/C=C/C(=O)C(C(N)=O)=C2SCCS2)cc1 | -0.0893 |

| Structure (SMILES) | z-score |
| --- | --- |
| Cc1ccc(Oc2nsnc2N2CCOCC2)cc1 | -0.488 |
| Cc1ccc(C(=O)Nc2onc(C)c2C#N)cc1 | -0.067 |
| CCCCC(=O)Nc1ccc(C(=O)N2CCCC(C(=O)OCC)C2)cc1 (stereo not drawn) | -0.0379 |
| Cc1nn(-c2ccccc2)c(Cl)c1/C=N/NC(=O)c1ccc(CNc2ccccc2)o1 | -2.26 |
| COc1ccccc1C1CN(c2ccccc2)N=C1c1cccs1 (stereo not drawn) | 0.853 |
| Cc1ccnc(N/N=C/c2ccco2)n1 | -0.224 |
| COCCNC(=O)CSc1ncnc2sccc12 | -0.294 |
| Cc1cc(NC(=O)CCC2CCCC2)no1 | -0.12 |
| CCCOc1ccc(OCC(=O)c2[nH]c(C)c(C(C)=O)c2C)cc1 | 0.149 |
| O=C(NC1CCS(=O)(=O)C1)N1CCCCC1 (stereo not drawn) | 0.0966 |
| CCCNC(=O)C/C(C)=N/NC(=O)COc1ccc(C)cc1Br | -0.101 |
| Cc1ccc(-n2c(C)nc3oc4ccccc4c(=O)c3c2=O)cc1 | -0.331 |
| O=C1/C(=C/c2cccc(F)c2)CSc2sccc21 | -0.298 |
| CCN(CC)c1ccc(/C=C(/C#N)c2nc3ccccc3[nH]2)c(OC(C)C)c1 | -2.51 |
| CCCS(=O)(=O)N1CCCC(C(=O)NCCCN2CCN(c3ccccc3F)CC2)C1 (stereo not drawn) | 0.0581 |
| CC1CN(Cc2nc3c(c(=O)[nH]c(=O)n3C)n2CC(N)=O)CC(C)O1 (stereo not drawn) | 0.852 |
| Cc1ccc(S(=O)(=O)NNC(=O)CCC(=O)Nc2ccc(C)c(C)c2)cc1 | 0.564 |
| CCS(=O)(=O)c1nc(S(=O)(=O)c2ccc(Cl)cc2)c(NCc2ccco2)s1 | -0.04 |
| Cc1nnc(SCC(=O)NCC2CCCCC2)n(N)c1=O | 0.443 |
| COC(=O)c1cc(C#N)c(N(C)Cc2ccccc2)nc1C | -0.154 |
| COC(=O)/C(N=Nc1c(C)n(C)n(-c2ccccc2)c1=O)=C(\C)O | -0.0353 |
| Cc1onc(-c2ccccc2)c1C(=O)N1CCc2ccccc21 | 0.315 |
| O=C(NC(=S)NCC1COc2ccccc2O1)c1ccccc1 (stereo not drawn) | active: 6.58 |
